About 2,200 (0.71%) of roughly 310,000 compounds showed an effect of 50% or more. The effect is printed as a negative number. Some of the results follow.

Chain of human ether-à-go-go-related gene (hERG) potassium channel (Q12809 whole entry, looked up): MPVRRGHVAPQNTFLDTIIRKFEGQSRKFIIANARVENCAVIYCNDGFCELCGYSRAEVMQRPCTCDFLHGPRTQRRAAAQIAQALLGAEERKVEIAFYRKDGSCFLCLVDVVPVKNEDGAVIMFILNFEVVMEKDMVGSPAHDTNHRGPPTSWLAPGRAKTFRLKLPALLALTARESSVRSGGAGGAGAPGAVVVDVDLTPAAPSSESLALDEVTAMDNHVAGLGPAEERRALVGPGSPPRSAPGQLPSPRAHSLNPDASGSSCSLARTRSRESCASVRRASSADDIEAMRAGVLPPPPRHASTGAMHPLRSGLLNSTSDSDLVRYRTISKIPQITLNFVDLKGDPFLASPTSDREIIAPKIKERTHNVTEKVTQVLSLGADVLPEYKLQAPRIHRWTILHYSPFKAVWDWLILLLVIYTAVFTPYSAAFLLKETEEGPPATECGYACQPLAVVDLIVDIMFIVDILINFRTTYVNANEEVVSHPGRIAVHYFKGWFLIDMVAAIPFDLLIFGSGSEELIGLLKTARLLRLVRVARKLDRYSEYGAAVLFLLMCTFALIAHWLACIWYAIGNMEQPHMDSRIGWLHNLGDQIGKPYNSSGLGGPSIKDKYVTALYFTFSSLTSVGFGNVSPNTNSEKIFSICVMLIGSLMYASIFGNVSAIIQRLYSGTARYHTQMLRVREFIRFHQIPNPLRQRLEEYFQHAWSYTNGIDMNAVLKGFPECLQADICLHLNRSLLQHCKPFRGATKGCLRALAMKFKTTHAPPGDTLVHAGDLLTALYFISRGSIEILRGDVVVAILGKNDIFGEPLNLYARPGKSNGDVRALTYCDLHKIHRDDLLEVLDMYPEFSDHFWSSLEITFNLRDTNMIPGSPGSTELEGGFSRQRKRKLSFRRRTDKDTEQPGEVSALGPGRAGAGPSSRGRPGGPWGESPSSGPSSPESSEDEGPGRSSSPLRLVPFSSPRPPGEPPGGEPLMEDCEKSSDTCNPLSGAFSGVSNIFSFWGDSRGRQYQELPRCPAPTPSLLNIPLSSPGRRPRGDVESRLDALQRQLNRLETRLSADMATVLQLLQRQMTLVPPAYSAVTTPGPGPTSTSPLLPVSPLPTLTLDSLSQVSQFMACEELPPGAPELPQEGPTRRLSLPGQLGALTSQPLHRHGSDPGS

This assay concerns the target human ether-à-go-go-related gene (hERG) potassium channel (human, UniProt Q12809). Description: primary screen, population patch clamp on CHO cells stably expressing hERG.
As to `COC(=O)c1sc(S(=O)(=O)N2CCC(C(=O)O)CC2)c(C(=O)OC)c1C`, the “hERG current change (%, negative = inhibition) at 1uM” value is listed as 8.84%.

As to `O=C(CSc1nnc(CNC(=O)c2ccccc2F)o1)NC1CCCCC1`, the “hERG current change (%, negative = inhibition) at 1uM” value worked out at 22.7%.

Consider `CCOC(=O)Cc1[nH]nc2c1C(c1ccsc1)C(C#N)=C(N)O2` (stereo not shown), for which the “hERG current change (%, negative = inhibition) at 1uM” value is 4.93%.

Turning to `CC(C)c1ccc(NC2CCCN(C(=O)c3ccc4nccnc4c3)C2)cc1` (stereo not shown), the “hERG current change (%, negative = inhibition) at 1uM” value came to 4.9%.

In the case of `COc1ccc(-c2nc(Cn3c(SCc4ccccc4F)nc4ccncc43)c(C)o2)cc1`, the “hERG current change (%, negative = inhibition) at 1uM” value is recorded as 9.27%.

On to `COc1cccc(C2CC(c3cccs3)=NN2C(=O)CSc2nc3ccccc3o2)c1OC` (stereo not shown), for which the “hERG current change (%, negative = inhibition) at 1uM” value is 9.23%.

As for `O=C(c1c(F)cccc1F)N1CCCC(c2nc(-c3ccc(Cl)cc3)no2)C1` (stereo not shown), the “hERG current change (%, negative = inhibition) at 1uM” value is 6.25%.

On to `O=c1c2ccccc2[se]n1-c1ccccc1`, for which the “hERG current change (%, negative = inhibition) at 1uM” value came to 22.4%.

As to `CCn1nc(C(=O)O)c(=O)c2cc3c(cc21)OCO3`, the “hERG current change (%, negative = inhibition) at 1uM” value came out at 12%.

As to `Cn1c(CCC(=O)O)nc2cc(S(=O)(=O)N3CCCCC3)ccc21`, the “hERG current change (%, negative = inhibition) at 1uM” value amounted to 7.58%.

As to `COCCn1c(Cc2ccccc2)nnc1SCc1nc2ccccc2c(=O)[nH]1`, the “hERG current change (%, negative = inhibition) at 1uM” value was 4.76%.

On to `O=C(O)/C=C/C(=O)Nc1c(F)cccc1F`, for which the “hERG current change (%, negative = inhibition) at 1uM” value is reported as 9.63%.

As to `Cl.O=C(COc1ccc(Cl)cc1Cl)NCCCn1ccnc1`, the “hERG current change (%, negative = inhibition) at 1uM” value is given as -36.2%.

Regarding `O=C(CNC(=O)c1ccc(F)cc1)N/N=C/c1cn[nH]c1-c1ccccc1`, the “hERG current change (%, negative = inhibition) at 1uM” value was determined as 11.1%.

For `COc1ccc(CCNC(=O)C2CC2)cc1`, the “hERG current change (%, negative = inhibition) at 1uM” value is reported as 8.37%.

As for `O=C(Nc1ccccc1)c1ccc2c(c1)OCCO2`, the “hERG current change (%, negative = inhibition) at 1uM” value is recorded as 13.1%.

Take `Cc1c(NS(=O)(=O)c2cc(C(=O)NCCN(C)C)ccc2Cl)c(=O)n(-c2ccccc2)n1C.Cl`: the “hERG current change (%, negative = inhibition) at 1uM” value is listed as 13.8%.

With `COc1ccc(C(C(=O)NC2CCCC2)N(C(=O)c2snc(-c3ccc(F)cc3)c2N)c2ccccc2)cc1` (stereo not shown), the “hERG current change (%, negative = inhibition) at 1uM” value was -6.81%.

Consider `COc1ccc(C2C(C(=O)Nc3ccc(F)cc3)=C(C)Nc3nc(CCCO)nn32)cc1` (stereo not shown), for which the “hERG current change (%, negative = inhibition) at 1uM” value is reported as 13.9%.

Regarding `Cc1ccccc1C(=O)Nc1ccc(C(=O)NNC(=O)CCCOc2ccc(Cl)cc2Cl)cc1`, the “hERG current change (%, negative = inhibition) at 1uM” value is 15.3%.

`Cl.Cn1c(C(=O)N2CCN(Cc3ccc4c(c3)OCO4)CC2)cc2sccc21`: the “hERG current change (%, negative = inhibition) at 1uM” value turned out to be 9.32%.

As to `CC1=CC(C)[C@@H]2COC(c3ccc(O)cc3)[C@H]1C2C` (stereo partly shown), the “hERG current change (%, negative = inhibition) at 1uM” value turned out to be 11.5%.

On to `CC(C)N1CCc2c(sc(NC(=O)CCS(=O)(=O)c3ccccc3)c2C#N)C1.Cl`, for which the “hERG current change (%, negative = inhibition) at 1uM” value is 3.7%.

With `CCC1=C2CC[C@H]3C(=O)N(CC)C(=O)[C@H]3[C@H]2[C@@]2(Cc3ccccc3)C(=O)N(Cc3ccccc3)C(=O)N2C1=O`, the “hERG current change (%, negative = inhibition) at 1uM” value turned out to be 4.99%.

`CCC(C)(C)c1ccc(OC(=O)c2cccnc2Cl)cc1`: the “hERG current change (%, negative = inhibition) at 1uM” value is recorded as 4.65%.

For `CCOP(=O)(OCC)/C(C#N)=C/c1ccoc1`, the “hERG current change (%, negative = inhibition) at 1uM” value was 11%.

On to `CCC(=O)Nc1ccc(Nc2ccccc2)cc1`, for which the “hERG current change (%, negative = inhibition) at 1uM” value is 13.7%.

For `CC1(C)CC(=O)C/C(=N\NC(=S)NCc2ccccc2)C1`, the “hERG current change (%, negative = inhibition) at 1uM” value worked out at 12.6%.

As for `CC(=O)c1cccc(NC(=O)NC(C)c2ccc3c(c2)OCO3)c1` (stereo not shown), the “hERG current change (%, negative = inhibition) at 1uM” value stood at 5.43%.

As to `O=C1c2ccccc2C(=O)N1CCCc1c[nH]c2ccccc12`, the “hERG current change (%, negative = inhibition) at 1uM” value was -2.92%.

On to `O=C(O)c1ccccc1-c1ccccc1C(=O)NNc1ccccc1`, for which the “hERG current change (%, negative = inhibition) at 1uM” value is 9.34%.

Regarding `O=C(c1ccc(OC2CCN(C(=O)C3CC3)CC2)cc1)N(CCO)Cc1ccccc1`, the “hERG current change (%, negative = inhibition) at 1uM” value came out at 5.02%.

As for `FC(F)(F)c1cnc(-n2cc[nH]c2=S)c(Cl)c1`, the “hERG current change (%, negative = inhibition) at 1uM” value worked out at 9.98%.

`O=C(CCCOc1ccc(Cl)cc1)N1CCCCC1`: the “hERG current change (%, negative = inhibition) at 1uM” value stood at 8.46%.

Regarding `O=C(O)c1[nH]c2ccccc2c1C(c1cccc(O)c1)c1c(C(=O)O)[nH]c2ccccc12`, the “hERG current change (%, negative = inhibition) at 1uM” value was 19.1%.

Take `COCCN1Cc2cccc(C(=O)Nc3ccc(-c4nc5ccccc5[nH]4)cc3)c2C1=O`: the “hERG current change (%, negative = inhibition) at 1uM” value came out at 6.52%.

Regarding `O=C(Nc1ccc(Cl)cc1)c1ccc2c(=O)n3c(nc2c1)CCCCC3`, the “hERG current change (%, negative = inhibition) at 1uM” value is reported as -21.1%.

As to `CC(Oc1cc2oc(=O)cc(-c3ccccc3)c2cc1Cl)C(=O)NCC1CCC(C(=O)O)CC1` (stereo not shown), the “hERG current change (%, negative = inhibition) at 1uM” value was -0.598%.

With `Cc1nc(P(=O)(c2ccccc2)c2ccccc2)c(N2CCOCC2)o1`, the “hERG current change (%, negative = inhibition) at 1uM” value is on record as 12.3%.

As to `COc1ccc2nc(-c3cccc(N)c3)[nH]c2c1`, the “hERG current change (%, negative = inhibition) at 1uM” value is listed as 7.21%.

In the case of `O=C(Nc1ccc(-c2nc3c(ccc4ccccc43)o2)cc1)c1ccco1`, the “hERG current change (%, negative = inhibition) at 1uM” value came out at 7.34%.

Take `CC(=Nc1ccc2c(c1)CCC2)c1c(O)n(C)c(=O)n(C)c1=O`: the “hERG current change (%, negative = inhibition) at 1uM” value was 12.4%.

Take `CCOC(=O)c1ccc(NC(=S)N(CCCN(CC)CC)Cc2ccco2)cc1`: the “hERG current change (%, negative = inhibition) at 1uM” value is -57.9%.

In the case of `COC(=O)NCc1ccc(S(=O)(=O)N2CCOCC2)cc1`, the “hERG current change (%, negative = inhibition) at 1uM” value worked out at 15.9%.

As for `O=C(CCc1ccc(S(=O)(=O)NCc2ccccc2)cc1)NCC1CCCO1` (stereo not shown), the “hERG current change (%, negative = inhibition) at 1uM” value is on record as 12.5%.

Take `Cc1ccc(NC(=O)CC(NCC2CCCO2)C(=O)O)cc1C` (stereo not shown): the “hERG current change (%, negative = inhibition) at 1uM” value stood at 14.9%.

For `O=C(NCc1ccccc1)C1CC(=O)N(c2ccc(OCC(=O)N3CCCC3)cc2)C1` (stereo not shown), the “hERG current change (%, negative = inhibition) at 1uM” value worked out at 6.59%.

Turning to `COc1ccc(NC(=O)CCSc2ccc3ccccc3n2)cc1`, the “hERG current change (%, negative = inhibition) at 1uM” value was found to be 0.419%.

As to `Cc1ccc(CN2CCN(Cc3ccc(-n4cccn4)cc3C)CC2CCO)cc1` (stereo not shown), the “hERG current change (%, negative = inhibition) at 1uM” value is listed as -83.8%.

For `COc1ccccc1CN1CCCC(C(=O)c2ccccc2SC)C1` (stereo not shown), the “hERG current change (%, negative = inhibition) at 1uM” value is -27.3%.

For the compound `COc1ccc([N+](=O)[O-])cc1NC(=O)Cc1ccc(C)cc1`, the “hERG current change (%, negative = inhibition) at 1uM” value came to 13.7%.

With `Cc1nc2nc(Cc3ccccc3)nn2c(C)c1Cl`, the “hERG current change (%, negative = inhibition) at 1uM” value was determined as 5.07%.

Turning to `Cn1cc(CNC(=O)c2cc(-c3ccccc3)nc3ccc(Br)cc23)cn1`, the “hERG current change (%, negative = inhibition) at 1uM” value amounted to 12.7%.

In the case of `CCOc1ccc(N2CC(C(=O)Nc3nnc(Cc4ccc(OC)cc4)s3)CC2=O)cc1` (stereo not shown), the “hERG current change (%, negative = inhibition) at 1uM” value is given as 8.33%.

With `COc1cc2c(C#CCCO)c(-c3ccc(C#N)cc3)oc(=O)c2cc1OC`, the “hERG current change (%, negative = inhibition) at 1uM” value is -15.6%.

(Values after article PMC4336329 (PLoS ONE, 2015).)
